Data: the supplement of paper PMC4967469
The IC50 comes from the fitted curve, where viability falls to half of the control; fits outside the tested doses are given as limits. The AUC spans the tested range (256-fold, ending at the top dose) of the same fit; values near 1 show little effect. Any top dose called inferred is not printed in the source and was worked back from the curve model.

What was measured:
FR-180204 = compound: Nc1[nH]nc2nnc(-c3c(-c4ccccc4)nn4ccccc34)cc12 [FR-180204]; assay: Viability of human cancer cell lines after 72 h of drug (GDSC screen); conditions: top dose 20 µM; top dose inferred
Procedure: (§1)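 Human cancer cell lines in 384-well plates, medium with 10% serum, drug for 72 h over a 256-fold dose range (nine 2-fold or five 4-fold steps up to the top dose). Adherent lines were fixed and stained with the nucleic acid dye Syto60, suspension lines read with resazurin; signal relative to control wells, capped at 0 and 100%. One two-parameter sigmoid per drug and line, fitted in a mixed model over all curves with the slope shared within a line.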

FK866 = compound: O=C(/C=C/c1cccnc1)NCCCCC1CCN(C(=O)c2ccccc2)CC1 [FK866]; assay: as above; conditions: top dose 1 µM; top dose inferred
Procedure: as §1

Cell Line	AUC (FR-180204)	IC50 (FR-180204) [nM]	AUC (FK866)	IC50 (FK866) [nM]
SW962 (urogenital system, adherent)	0.965	> 20000	0.648	179
SW982 (soft tissue, adherent)	0.977	> 20000	0.528	74.9
SW1088 (glioma, adherent)	0.974	> 20000	0.702	278
SW1116 (large intestine, adherent)	0.985	> 20000	0.913	> 1000
SW1271 (small cell lung carcinoma, adherent)	0.896	> 20000	0.967	> 1000
SW1417 (large intestine, adherent)	0.954	> 20000	0.927	> 1000
SW1463 (large intestine, adherent)	0.975	> 20000	0.832	> 1000
SW1573 (lung adenocarcinoma, adherent)	0.972	> 20000	0.885	> 1000
SW1710 (bladder, adherent)	0.954	> 20000	0.475	53.4
SW1783 (glioma, adherent)	0.991	> 20000	0.709	226
SW1990 (pancreas, adherent)	0.976	> 20000	0.894	> 1000
Saos-2 (osteosarcoma, adherent)	0.976	> 20000	0.75	456
SiHa (cervix, adherent)	0.987	> 20000	0.216	7.9
T47D (breast, adherent)	0.96	> 20000	0.599	135
T84 (large intestine, adherent)	0.972	> 20000	0.885	> 1000
T98G (glioma, adherent)	0.983	> 20000	0.245	12.4
T-24 (bladder, adherent)	0.968	> 20000	0.983	> 1000
T-T (oesophagus, adherent)	0.976	> 20000	0.271	14
TC-71 (Ewing sarcoma, adherent)	0.886	15600	0.106	4.65
TCCSUP (bladder, adherent)	0.978	> 20000	0.659	184
TE-1 (oesophagus, adherent)	0.982	> 20000	0.975	> 1000
TE-4 (oesophagus, adherent)	0.983	> 20000	0.397	32.6
TE-5 (oesophagus, adherent)	0.982	> 20000	0.71	270
TE-6 (oesophagus, adherent)	0.978	> 20000	0.856	> 1000
TE-8 (oesophagus, adherent)	0.959	> 20000	0.046	< 3.91
TE-9 (oesophagus, adherent)	0.983	> 20000	0.178	6.36

Cell Line	AUC (FR-180204)	IC50 (FR-180204) [nM]	AUC (FK866)	IC50 (FK866) [nM]
TE-10 (oesophagus, adherent)	0.973	> 20000	0.196	8.01
TE-11 (oesophagus, adherent)	0.99	> 20000	0.989	> 1000
TE-12 (oesophagus, suspension)	0.953	> 20000	0.949	> 1000
TE-15 (oesophagus, suspension)	0.909	> 20000	0.076	< 3.91
TGBC1TKB (biliary tract, adherent)	0.987	> 20000	0.894	> 1000
TGBC11TKB (stomach, adherent)	0.987	> 20000	0.241	12.5
TGBC24TKB (biliary tract, adherent)	0.97	> 20000	0.963	> 1000
TGW (neuroblastoma, adherent)	0.98	> 20000	0.991	> 1000
THP-1 (acute myeloid leukaemia, suspension)	0.9	> 20000	0.032	< 3.91
TK10 (kidney, adherent)	0.906	> 20000	0.57	101
TK (B-cell lymphoma, suspension)	0.968	> 20000	0.989	> 1000
TMK-1 (stomach, adherent)	0.981	> 20000	0.463	49.1
TOV-21G (ovary, adherent)	0.976	> 20000	0.216	8.38
TOV-112D (ovary, adherent)	0.903	> 20000	0.232	10.3
TT2609-C02 (thyroid, adherent)	0.975	> 20000	0.985	> 1000
TT (thyroid, adherent)	0.983	> 20000	0.925	> 1000
TUR (B-cell lymphoma, suspension)	0.978	> 20000	0.023	< 3.91
TYK-nu (ovary, adherent)	0.985	> 20000	0.373	27.1
U031 (kidney, adherent)	0.967	> 20000	0.335	21.3
U251 (glioma, adherent)	0.988	> 20000	0.119	4.07
U-2-OS (osteosarcoma, adherent)	0.985	> 20000	0.195	7.02
U-87-MG (glioma, adherent)	0.976	> 20000	0.349	22.1
U-118-MG (glioma, adherent)	0.964	> 20000	0.565	96.5
U-698-M (B-cell leukaemia, suspension)	0.954	> 20000	0.042	< 3.91
UACC-62 (melanoma, adherent)	0.985	> 20000	0.875	960
UACC-257 (melanoma, adherent)	0.969	> 20000	0.844	996

Cell Line	AUC (FR-180204)	IC50 (FR-180204) [nM]	AUC (FK866)	IC50 (FK866) [nM]
UM-UC-3 (bladder, adherent)	0.965	> 20000	0.126	4.49
UMC-11 (lung carcinoid, adherent)	0.984	> 20000	0.843	602
UWB1.289 (ovary, adherent)	0.924	> 20000	0.815	954
VA-ES-BJ (soft tissue, adherent)	0.985	> 20000	0.964	> 1000
VAL (B-cell lymphoma, suspension)	0.907	> 20000	0.062	< 3.91
VCaP (prostate, adherent)	0.94	> 20000	0.967	> 1000
VM-CUB-1 (bladder, adherent)	0.988	> 20000	0.043	< 3.91
VMRC-MELG (melanoma, adherent)	0.944	> 20000	0.988	> 1000
VMRC-RCZ (kidney, adherent)	0.974	> 20000	0.602	125
WIL2-NS (lymphoid neoplasm, suspension)	0.992	> 20000	0.019	< 3.91
WM35 (melanoma, adherent)	0.85	15300	0.98	> 1000
WM278 (melanoma, adherent)	0.954	> 20000	0.403	32.7
WM793B (melanoma, adherent)	0.947	> 20000	0.517	69.9
WM1552C (melanoma, adherent)	0.979	> 20000	0.986	> 1000
WM-115 (melanoma, adherent)	0.961	> 20000	0.978	> 1000
WSU-DLCL2 (B-cell lymphoma, suspension)	0.993	> 20000	0.991	> 1000
WSU-NHL (lymphoid neoplasm, suspension)	0.983	> 20000	0.023	< 3.91
YAPC (pancreas, adherent)	0.975	> 20000	0.69	245
YH-13 (glioma, adherent)	0.974	> 20000	0.969	> 1000
YKG-1 (glioma, adherent)	0.978	> 20000	0.444	43.7
YT (lymphoid neoplasm, suspension)	0.988	> 20000	0.176	8.15
huH-1 (liver, adherent)	0.983	> 20000	0.951	> 1000
no-10 (glioma, adherent)	0.983	> 20000	0.843	961
no-11 (glioma, adherent)	0.981	> 20000	0.93	> 1000
